Reference: a collection of fitness landscapes (doi:10.1016/j.celrep.2020.107928)
Over roughly 81,000 sequences, “one-hybrid fitness for binding parS DNA” has its median near -0.17; the highest 2% begin near 0.51. The list shows a part of the results.

B1: Caulobacter ParB omega fusion; a variant is named by its letters at X, in order, B8GW30 (parent)
chain: MESVVVGEPGMSEGRRGLGRGLSALLGEVDAAPAQAPGEQLGGSREAPIEILQRNPDQPRRTFREEDLEDLSNSIREKGVLQPILVRPSPDTAGEYQIVAGERAWRAAQRAGLKTVPIMVRELDDLAVLEIGIIENVQRADLNVLEEALSYKVLMEKFERTQENIAQTIGKSXSHVANXMRLLXLPDEVQSYLVSGELTAXHARAIAAAADPVALAKQIIEGGLSVRETEALARKAPNLSAGKSKGGRPPRVKDTDTQALESDLSSVLGLDVSIDHRGSTGTLTITYATLEQLDDLCNRLTRGI

Variants of: B1
Experiment: one-hybrid fitness for binding parS DNA (scaled: cognate 1, non-cognate 0); higher = stronger binding
Settings: with parS DNA site
In short: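 Pre- and post-selection plasmids were Illumina-sequenced, three replicate libraries were pooled, and any variant with under 10 reads was removed. The libraries were Caulobacter ParB with four specificity codons randomised, selected in E. coli USO through a HIS3 reporter whose site is 19 bp from the promoter. Cells grew 48 hours at 37°C on M9 without histidine, with 0.1 mM IPTG and 5 mM 3-AT. Fitness is the log change in variant-to-wild-type read ratio, rescaled against cognate and non-cognate.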

one-hybrid fitness for binding parS DNA, ≤ 0.2:
GFRS
TWMR
SVLY
NKHC
VCDC
FYLT
GHAM
QESP
MCHW
WPAT
SADN
VPTT
NRGR
DMLG
YLAE
VFYW
VVKG
PEWR
KAET
WILL
QEPY
AIKS
PLQG
HHKR
CWMR
QICM
SRDR
PHGK
LFMC
QDRK
EQSA
TRIT
VDYS
DHSL
TRNP
EDRS
NRFI
TANV
PRNA
PISF
EPPT
VKPC
HLRG
CFGK
GPDG
SPVC
ATFN
APTF
LRLD
WDMS
RYSF
QFTK
SDTW
PAAP
TRTC
VIPT
DLFS
FMNC
FRTY
WICG
IDPW
CLAT
YHMG
WGPL
KQPK
KQRH
SSTN
GRWS
CSVG
PEIL
KDFR
LGID
VASL
ARNW
NCLE
DESK
MVTG
ITQC
SLWF
SNAS
DSHN
CRHY
SAPF
QKIH
IMDT
DMFC
DQHG
HDPS
ANTP
FHFR
KTQD
DVTL
QSHW
PFKM

one-hybrid fitness for binding parS DNA, 0.6:
RRMT

one-hybrid fitness for binding parS DNA, 0.998:
RSGG

one-hybrid fitness for binding parS DNA, 0.422:
RGIC
